Laboratory results reported in US20260055188A1 (SHENGHE CHINA BIOPHARMACEUTICAL, published 2026).

T1: Human-TNFR2-His (manufacturer: SINO, CAT: 10417-H08H) (human, UniProt P20333 23-257)
T1 construct: Bought protein; also called human TNFR2 protein; TNFR2 protein; not shown: His tag
T1 sequence (looked up): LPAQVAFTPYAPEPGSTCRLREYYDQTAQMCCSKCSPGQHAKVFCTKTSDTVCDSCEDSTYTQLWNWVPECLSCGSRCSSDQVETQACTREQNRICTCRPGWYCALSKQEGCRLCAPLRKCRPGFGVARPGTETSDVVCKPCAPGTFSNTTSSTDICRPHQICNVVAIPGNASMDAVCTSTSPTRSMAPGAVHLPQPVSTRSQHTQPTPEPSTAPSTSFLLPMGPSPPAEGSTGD

T2: human CD24 on MCF-7 tumor cells (human, UniProt P25063 27-59)
T2 construct: whole, on cells; also called CD24 protein; MCF-7 tumor cells with high expression of human CD24
T2 chain (looked up): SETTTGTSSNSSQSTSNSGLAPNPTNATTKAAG

B1: TD-C (bispecific antibody, human IgG1, kappa)
light: DIVMTQSPSSLAVSLGERATINCKSSQSLLYSNDQKNYLAWYQQKPGQSPKLLIYWASTRESGVPDRFSGSGSGTDFTLTISSLQAEDVAVYYCQQYFIYPLTFGGGTKLELKRTVAAPSVFIFPPSDEQLKSGTASVVCLLNNFYPREAKVQWKVDNALQSGNSQESVTEQDSKDSTYSLSSTLTLSKADYEKHKVYACEVTHQGLSSPVTKSFNRGEC
heavy: EVQLQESGPGLVKPSQTLSLTCTVSGYSITSGYTWHWIRQFPGNKLEWIGHIQYTGNTKYNPSLESRITISRDTSKNQFSLKLSSVTAADTATYYCARGSTNSNDYWGQGTLVTVSS[not shown - human IgG1 constant region]GGGGSGGGGSGGGGSEVQLVESGGGLVQPGGSLRLSCAASGSRLDYYAVAWFRQAPGKEREEVSCITYSGGSTNYAESVKGRFTISRDNSKNTLYLQMNSLRAEDTAVYYCTTEPYGSSCPLSGYDTWGQGTLVTVSS
notes: also called antibody TD-C
B2: TD-G (bispecific antibody, human IgG1, kappa)
light: DIVMTQSPSSLAVSLGERATINCKSSQSLLYSNDQKNYLAWYQQKPGQSPKLLIYWASTRESGVPDRFSGSGSGTDFTLTISSLQAEDVAVYYCQQYFIYPLTFGGGTKLELKRTVAAPSVFIFPPSDEQLKSGTASVVCLLNNFYPREAKVQWKVDNALQSGNSQESVTEQDSKDSTYSLSSTLTLSKADYEKHKVYACEVTHQGLSSPVTKSFNRGECGGGGSGGGGSEVQLVESGGGLVQPGGSLRLSCAASGSRLDYYAVAWFRQAPGKEREEVSCITYSGGSTNYAESVKGRFTISRDNSKNTLYLQMNSLRAEDTAVYYCTTEPYGSSCPLSGYDTWGQGTLVTVSS
heavy: EVQLQESGPGLVKPSQTLSLTCTVSGYSITSGYTWHWIRQFPGNKLEWIGHIQYTGNTKYNPSLESRITISRDTSKNQFSLKLSSVTAADTATYYCARGSTNSNDYWGQGTLVTVSS[not shown - human IgG1 constant region]
notes: also called antibody TD-G
B3: TD-E (bispecific antibody, human IgG1, kappa)
light: DIVMTQSPSSLAVSLGERATINCKSSQSLLYSNDQKNYLAWYQQKPGQSPKLLIYWASTRESGVPDRFSGSGSGTDFTLTISSLQAEDVAVYYCQQYFIYPLTFGGGTKLELKRTVAAPSVFIFPPSDEQLKSGTASVVCLLNNFYPREAKVQWKVDNALQSGNSQESVTEQDSKDSTYSLSSTLTLSKADYEKHKVYACEVTHQGLSSPVTKSFNRGECGGGGSGGGGSEVQLVQSGAEVKKPGATVKISCKVSGYSITDYLLHWVQQAPGKCLEWMGWIDPEDAKTKYGQKFQSRVTITADTSTDTAYMELSSLRSEDTAVYYCAANSGTGTMDAWGQGTLVTVSSGGGGSGGGGSGGGGSDIVMTQSPATLSVSPGERATLSCKASQNVGSNVDWYQQKPGQSPRVLIYKASIRYTGIPARFSGSGSGTEFTLTISILQSEDFAVYFCMQSKSYPITFGCGTKLEIK
heavy: B2 heavy
notes: also called antibody TD-E
B4: TD-B (bispecific antibody, human IgG1, kappa)
light: B1 light
heavy: EVQLVQSGAEVKKPGATVKISCKVSGYSITDYLLHWVQQAPGKCLEWMGWIDPEDAKTKYGQKFQSRVTITADTSTDTAYMELSSLRSEDTAVYYCAANSGTGTMDAWGQGTLVTVSSGGGGSGGGGSGGGGSDIVMTQSPATLSVSPGERATLSCKASQNVGSNVDWYQQKPGQSPRVLIYKASIRYTGIPARFSGSGSGTEFTLTISILQSEDFAVYFCMQSKSYPITFGCGTKLEIKGGGGSGGGGSGGGGSEVQLQESGPGLVKPSQTLSLTCTVSGYSITSGYTWHWIRQFPGNKLEWIGHIQYTGNTKYNPSLESRITISRDTSKNQFSLKLSSVTAADTATYYCARGSTNSNDYWGQGTLVTVSS[not shown - human IgG1 constant region]
notes: also called antibody TD-B
B5: TD-H (bispecific antibody, human IgG1, kappa)
light: EVQLVESGGGLVQPGGSLRLSCAASGSRLDYYAVAWFRQAPGKEREEVSCITYSGGSTNYAESVKGRFTISRDNSKNTLYLQMNSLRAEDTAVYYCTTEPYGSSCPLSGYDTWGQGTLVTVSSGGGGSGGGGSGGGGSDIVMTQSPSSLAVSLGERATINCKSSQSLLYSNDQKNYLAWYQQKPGQSPKLLIYWASTRESGVPDRFSGSGSGTDFTLTISSLQAEDVAVYYCQQYFIYPLTFGGGTKLELKRTVAAPSVFIFPPSDEQLKSGTASVVCLLNNFYPREAKVQWKVDNALQSGNSQESVTEQDSKDSTYSLSSTLTLSKADYEKHKVYACEVTHQGLSSPVTKSFNRGEC
heavy: B2 heavy
notes: also called antibody TD-H
B6: TD-F (bispecific antibody, human IgG1, kappa)
light: EVQLVQSGAEVKKPGATVKISCKVSGYSITDYLLHWVQQAPGKCLEWMGWIDPEDAKTKYGQKFQSRVTITADTSTDTAYMELSSLRSEDTAVYYCAANSGTGTMDAWGQGTLVTVSSGGGGSGGGGSGGGGSDIVMTQSPATLSVSPGERATLSCKASQNVGSNVDWYQQKPGQSPRVLIYKASIRYTGIPARFSGSGSGTEFTLTISILQSEDFAVYFCMQSKSYPITFGCGTKLEIKGGGGSGGGGSGGGGSDIVMTQSPSSLAVSLGERATINCKSSQSLLYSNDQKNYLAWYQQKPGQSPKLLIYWASTRESGVPDRFSGSGSGTDFTLTISSLQAEDVAVYYCQQYFIYPLTFGGGTKLELKRTVAAPSVFIFPPSDEQLKSGTASVVCLLNNFYPREAKVQWKVDNALQSGNSQESVTEQDSKDSTYSLSSTLTLSKADYEKHKVYACEVTHQGLSSPVTKSFNRGEC
heavy: B2 heavy
notes: also called antibody TD-F

Tests used:
[1] = target: T1, Human-TNFR2-His (manufacturer: SINO, …); experiment: BLI, antibody on AHC sensor, 100 nM human-TNFR2-His in solution
Procedure: The AHC sensor was soaked in 0.02% PBST (0.02% Tween 20, pH 7.4, 1×PBS) as a buffer for 600 s to remove the sucrose covering the sensor surface. The AHC sensor was equilibrated with 0.02% PBST (0.02% Tween 20, pH 7.4, 1×PBS) as a buffer for 60 s, the antibody in the sample plate was solidified for 300 s, and the secondary equilibration buffer was used for 180 s. 100 nM human-TNFR2-His (manufacturer: SINO, CAT: 10417-H08H, LOT: LC12SE2902) protein was bound to the antibody for 300 s and then dissociated for 600 s. After dissociation, 10 mM glycine (pH 2.0) was used as a regeneration buffer for 30 s. The sensor was regenerated with 10 mM glycine (pH 2.0).

[2] = target: T2, human CD24 on MCF-7 tumor cells; experiment: flow cytometry on MCF-7 cells, 150 nM antibody, anti-human IgG Fc detection
Procedure: 100 μL of dilution was added to the blank control group, and 100 μL of fluorescent secondary antibody dilution was added to the rest of the sample groups respectively. After incubation for 0.5 h at room temperature and 4° C. protected from light, PBS was added to wash and centrifuged (3000 rpm, 3 min) twice. After discarding the supernatant, 80 μL of the dilution was added and resuspended.

[3] = target: T1, Human-TNFR2-His (manufacturer: SINO, …); experiment: flow cytometry, bridging: MCF-7 cells (human CD24) + 150 nM antibody + human TNFR2-His, anti-His FITC detection
Procedure: Pre-cooled dilution was added and washed once, centrifuged (3000 rpm, 3 min), and the supernatant was discarded, and the cells were harvested. Fluorescent secondary antibody Anti-6X-his tag antibody (FITC) (manufacturer: abcam, Cat. No.: ab1206, Lot No.: GR3420599-3) was taken and diluted at the used concentration of 1:500. 100 μL of dilution was added to the blank control group, and 100 μL of fluorescent secondary antibody dilution was added to the rest of the sample groups respectively. After incubation for 0.5 h at room temperature and 4° C. protected from light, PBS was added to wash and centrifuged (3000 rpm, 3 min) twice. After discarding the supernatant, 80 μL of the dilution was added and resuspended.

Binder | Kd [1] [nM] | koff [1] [s⁻¹] | kon [1] [M⁻¹ s⁻¹] | E1 Mean PE-A [2] | E1 Mean FITC-A [3]
B1 | 2.38 | 0.000652 | 275000 | 3.15e+06 | 7.2e+06
B2 | 2.54 | 0.000383 | 151000 | 4.02e+06 | 6.67e+06
B3 | – | – | – | 3.3e+06 | 5.59e+06
B4 | – | – | – | 4.02e+06 | 5.23e+06
B5 | 1.28 | 0.000634 | 494000 | 4.14e+06 | 3.12e+06
B6 | – | – | – | 3.72e+06 | 2.61e+06
